The list shows a part of the results. The energies were worked out here from pooled read counts, against the library average; single values are noisy.

The target of this assay is T1, Pho4 (S. cerevisiae) (UniProt P07270).
T1 sequence: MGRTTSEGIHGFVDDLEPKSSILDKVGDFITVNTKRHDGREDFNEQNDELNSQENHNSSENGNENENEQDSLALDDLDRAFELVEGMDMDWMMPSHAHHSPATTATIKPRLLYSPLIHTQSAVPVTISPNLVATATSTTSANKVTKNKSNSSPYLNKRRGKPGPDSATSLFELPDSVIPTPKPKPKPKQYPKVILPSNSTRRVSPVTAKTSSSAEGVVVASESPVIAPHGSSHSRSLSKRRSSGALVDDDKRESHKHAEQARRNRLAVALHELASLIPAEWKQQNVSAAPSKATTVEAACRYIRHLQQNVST
The assay is described as follows: relative binding free energy (BET-seq); higher = weaker binding. The conditions noted are these: reference: library average.
As to GGAGGCACGTGGTCAG, the “relative binding free energy” value is -0.11 kcal/mol.
As for TAAAACACGTGATTGG, the figure is 0.15 kcal/mol.
For TTTTACACGTGTTCGC the value was 0.11 kcal/mol; for AACTTCACGTGGTGTA, 0.36 kcal/mol; for TTTGTCACGTGACGTA, 0.11 kcal/mol.
Turning to GGTTACACGTGGTAAA, the “relative binding free energy” value was determined as 0.04 kcal/mol.
For TTTTACACGTGGTGGG the value was 0.15 kcal/mol; for GTCTACACGTGGAGTG, 0.05 kcal/mol.
On to GTAGGCACGTGGCTGG, for which the “relative binding free energy” value is -0.09 kcal/mol.
For TCGAGCACGTGGTTGT the value was -0.07 kcal/mol; for TTCTTCACGTGCTTGG, 0.16 kcal/mol.
As for AATGTCACGTGTTAGC, the figure is 0.06 kcal/mol.
Regarding ACTTGCACGTGTGATA, the “relative binding free energy” value turned out to be 0.22 kcal/mol.
In the case of TCTATCACGTGAGTTT, the “relative binding free energy” value turned out to be 0.17 kcal/mol.
For GTATACACGTGTAAGT the value was 0.04 kcal/mol; for CGTTTCACGTGTTTGC, 0.35 kcal/mol.
In the case of AGTGTCACGTGTGAAG, the “relative binding free energy” value was 0.12 kcal/mol.
For TTGTCCACGTGGATGT, the “relative binding free energy” value was 0.07 kcal/mol.
For TGACGCACGTGGAATG the value was 0.06 kcal/mol; for TGTGACACGTGGGACT, -0.07 kcal/mol; for TAATGCACGTGTTTCG, 0.03 kcal/mol.
As for GTTTTCACGTGTGATT, the “relative binding free energy” value amounted to 0.43 kcal/mol.
For TCAGACACGTGTGTTT the value was 0.04 kcal/mol; for TTAGGCACGTGCTATA, -0.25 kcal/mol; for TATTTCACGTGTAATA, 0.41 kcal/mol.
For AGAAGCACGTGATGGT the value was 0.07 kcal/mol; for AAATACACGTGTGGTT, 0.13 kcal/mol; for GTTTTCACGTGTAAAG, 0.29 kcal/mol.
For TAATGCACGTGTAGTA the value was 0.21 kcal/mol.
On to TTGATCACGTGGACTA, for which the “relative binding free energy” value was 0.2 kcal/mol.
As for GTATGCACGTGGGAAA, the figure is 0.05 kcal/mol.
For GATGTCACGTGAGAGT the value was 0.32 kcal/mol; for TCGATCACGTGTTGAT, 0.12 kcal/mol.
TAGCTCACGTGATTTT: the “relative binding free energy” value was found to be 0.3 kcal/mol.
For GGTTGCACGTGGCGAG the value was -0.11 kcal/mol; for GTTTCCACGTGATGGT, 0.28 kcal/mol.
With AGGCTCACGTGTTGGA, the “relative binding free energy” value stood at 0.25 kcal/mol.
For AATAGCACGTGAAAGG the value was 0.24 kcal/mol; for TCGCGCACGTGTATGG, -0.05 kcal/mol; for TAGTTCACGTGCGGCA, 0.36 kcal/mol.
With AGTGACACGTGTAATG, the “relative binding free energy” value stood at 0.05 kcal/mol.
For CGATGCACGTGTGAGT, the “relative binding free energy” value is -0.01 kcal/mol.
Consider GATAGCACGTGGATGG, for which the “relative binding free energy” value came to 0.11 kcal/mol.
Consider AATTTCACGTGTGCAG, for which the “relative binding free energy” value was determined as 0.17 kcal/mol.
With GGCCACACGTGAGGGG, the “relative binding free energy” value was 0.19 kcal/mol.
Consider GTGCCCACGTGTGAGG, for which the “relative binding free energy” value turned out to be 0.05 kcal/mol.
For TTTGCCACGTGCGCGG the value was -0.19 kcal/mol; for TGTATCACGTGTGTTA, 0.18 kcal/mol.
For ATCGTCACGTGGGATA the value was 0 kcal/mol; for GTAAGCACGTGTGTAT, -0.1 kcal/mol; for TCAGTCACGTGCAGGT, 0.19 kcal/mol.
In the case of TGAGACACGTGATGAG, the “relative binding free energy” value stood at 0.18 kcal/mol.
Regarding TTAAACACGTGGGGGT, the “relative binding free energy” value is -0.1 kcal/mol.
Regarding GTTGGCACGTGGTTCA, the “relative binding free energy” value was -0.23 kcal/mol.
In the case of CGGATCACGTGTGAAG, the “relative binding free energy” value worked out at 0.26 kcal/mol.
As for GCATTCACGTGCGTGG, the “relative binding free energy” value worked out at 0.35 kcal/mol.
As for CGGTCCACGTGTGCGG, the figure is -0.01 kcal/mol.
Take TACTACACGTGTTGGT: the “relative binding free energy” value is -0.01 kcal/mol.
With CCGAGCACGTGGGGGG, the “relative binding free energy” value is -0.32 kcal/mol.
In the case of GTTAGCACGTGAGGCT, the “relative binding free energy” value came out at 0.26 kcal/mol.
For GTTGGCACGTGCGGTA the value was -0.12 kcal/mol.
Turning to TGGGGCACGTGACGTA, the “relative binding free energy” value turned out to be 0.01 kcal/mol.
As for AGAAGCACGTGGGTGG, the “relative binding free energy” value was -0.17 kcal/mol.
In the case of GAAGGCACGTGTGAAG, the “relative binding free energy” value was -0.04 kcal/mol.
As for GGTTCCACGTGTTAGT, the figure is 0.14 kcal/mol; as for GGGAACACGTGTAGGA, 0.02 kcal/mol.
TTGTGCACGTGGAAGT: the “relative binding free energy” value turned out to be 0.09 kcal/mol.
As for GGCAGCACGTGCTTGT, the figure is -0.02 kcal/mol; as for AGGTTCACGTGATTCG, 0.33 kcal/mol.
As to TCATACACGTGGTGTG, the “relative binding free energy” value is 0.04 kcal/mol.
As to AGGTGCACGTGCAGGG, the “relative binding free energy” value is -0.02 kcal/mol.
For AAGCTCACGTGTTGTG, the “relative binding free energy” value came to 0.1 kcal/mol.
As for TTTCACACGTGCTGGT, the figure is 0.15 kcal/mol; as for CGGCTCACGTGTTGTG, 0.35 kcal/mol.
TGATGCACGTGCGTTT: the “relative binding free energy” value was -0.14 kcal/mol.
For GTTGTCACGTGTGGTT the value was 0.22 kcal/mol; for ACGGGCACGTGGTGGC, -0.1 kcal/mol.
As for GGAGTCACGTGATTCG, the figure is 0.29 kcal/mol.
As to CAGGGCACGTGATGTA, the “relative binding free energy” value was -0.05 kcal/mol.
Consider AGGTGCACGTGGTGCT, for which the “relative binding free energy” value is -0.08 kcal/mol.
Regarding TGATTCACGTGAACGG, the “relative binding free energy” value is 0.39 kcal/mol.
As to CCTGGCACGTGTGTTG, the “relative binding free energy” value was -0.11 kcal/mol.
For the sequence GTAATCACGTGGGCGG, the “relative binding free energy” value is 0 kcal/mol.
As for TTTGACACGTGCGTAG, the “relative binding free energy” value was -0.13 kcal/mol.
Consider CGTGTCACGTGTGGTC, for which the “relative binding free energy” value is 0.07 kcal/mol.
As for AGGTCCACGTGGGGTT, the “relative binding free energy” value was -0.15 kcal/mol.
Regarding GGGGACACGTGATGTG, the “relative binding free energy” value turned out to be 0.25 kcal/mol.
For the sequence CTGGTCACGTGTGTTA, the “relative binding free energy” value was determined as 0.07 kcal/mol.
CTTTTCACGTGGGAGT: the “relative binding free energy” value was determined as 0.23 kcal/mol.
As for CTCTGCACGTGGGTAA, the figure is -0.04 kcal/mol.
For GTTACCACGTGAGTGT, the “relative binding free energy” value amounted to 0.22 kcal/mol.
As for ATAAGCACGTGAGGTA, the figure is 0.07 kcal/mol.
On to TGCGTCACGTGTCTTT, for which the “relative binding free energy” value came to 0.05 kcal/mol.
For GTATGCACGTGGGGAT, the “relative binding free energy” value is -0.07 kcal/mol.
As for GTTTTCACGTGGCGGT, the “relative binding free energy” value is 0.31 kcal/mol.
For the sequence ATGCGCACGTGCTGGG, the “relative binding free energy” value is -0.16 kcal/mol.
For AATTGCACGTGAGGCT the value was 0.05 kcal/mol.
For GTGTGCACGTGAGATC the value was 0.18 kcal/mol; for TTCATCACGTGACGGG, 0.25 kcal/mol; for GAAGGCACGTGAGGCG, 0.14 kcal/mol.
Take AGTATCACGTGGATGA: the “relative binding free energy” value was 0 kcal/mol.
For TGATCCACGTGGGAGT the value was -0.07 kcal/mol.
With CAGTGCACGTGAAAGG, the “relative binding free energy” value is 0.22 kcal/mol.
Consider TTTAGCACGTGGTCAT, for which the “relative binding free energy” value is -0.18 kcal/mol.
For TAATTCACGTGGAATG the value was 0.33 kcal/mol; for TGGTCCACGTGATGGA, 0.17 kcal/mol.
As for GGGTGCACGTGAGGAC, the figure is 0.17 kcal/mol.
As for TTTGGCACGTGGCGTC, the figure is -0.38 kcal/mol; as for GTGGTCACGTGCGCTT, 0.06 kcal/mol.
As to GCTACCACGTGGGGGT, the “relative binding free energy” value is -0.11 kcal/mol.
For TCTTACACGTGAGGTG the value was 0.31 kcal/mol.
For TAGGTCACGTGACCGG the value was 0.25 kcal/mol.
With AGGGCCACGTGTTTTT, the “relative binding free energy” value was determined as 0.04 kcal/mol.
For the sequence TGGGTCACGTGGGGGA, the “relative binding free energy” value was determined as 0.01 kcal/mol.
As for AGTGTCACGTGGGCGT, the figure is -0.11 kcal/mol.
GGATACACGTGGTGGC: the “relative binding free energy” value was found to be 0.06 kcal/mol.
For GATTGCACGTGAAATT the value was 0.34 kcal/mol.
Consider TCATTCACGTGTTATT, for which the “relative binding free energy” value turned out to be 0.23 kcal/mol.
As for TCTAGCACGTGGGTTG, the figure is -0.15 kcal/mol.
In the case of TATATCACGTGTCCGT, the “relative binding free energy” value turned out to be 0.29 kcal/mol.
As for ATGAGCACGTGTAGTG, the figure is -0.05 kcal/mol; as for AGATGCACGTGGGAGC, -0.05 kcal/mol; as for TGGAACACGTGGAGGA, 0.2 kcal/mol.
On to TTGGGCACGTGGGTGT, for which the “relative binding free energy” value was -0.1 kcal/mol.
As for GGGTGCACGTGATAGC, the figure is 0.23 kcal/mol; as for TAGTACACGTGGCATG, -0.05 kcal/mol; as for GTTATCACGTGTGGGG, 0.23 kcal/mol.
As for TGTCGCACGTGGGTCG, the figure is -0.18 kcal/mol; as for ATGGTCACGTGGTTGC, 0.02 kcal/mol.
Turning to GTTGGCACGTGATGAT, the “relative binding free energy” value was determined as 0.09 kcal/mol.
With TGGTTCACGTGCGCTG, the “relative binding free energy” value amounted to 0.25 kcal/mol.
For GAATTCACGTGTTTGG the value was 0.37 kcal/mol; for AGTTTCACGTGACTAT, 0.31 kcal/mol.
Take TTAGTCACGTGGAGCG: the “relative binding free energy” value amounted to 0.13 kcal/mol.
In the case of TAATGCACGTGTCTTG, the “relative binding free energy” value was -0.02 kcal/mol.
In the case of TCGCGCACGTGGTTTA, the “relative binding free energy” value is -0.1 kcal/mol.
As for GGGGTCACGTGAAGTA, the figure is 0.41 kcal/mol; as for CGATGCACGTGCGGGG, -0.24 kcal/mol; as for CGTTACACGTGGGTAG, -0.12 kcal/mol.
As for CCATGCACGTGGGGTG, the “relative binding free energy” value is -0.23 kcal/mol.
For TCAGTCACGTGGTTGC the value was 0.1 kcal/mol.
In the case of ATGGCCACGTGTAGTT, the “relative binding free energy” value turned out to be 0 kcal/mol.
As to AGTAACACGTGTTTAA, the “relative binding free energy” value was 0.08 kcal/mol.
Take ACAGACACGTGGGGTG: the “relative binding free energy” value is -0.09 kcal/mol.
On to TTCAGCACGTGGAGGC, for which the “relative binding free energy” value amounted to 0.04 kcal/mol.
As for GTGTACACGTGGTATT, the figure is 0.08 kcal/mol.

The record behind these values is the BET-seq Pho4 binding data (Le et al. 2018).
